In publication PMC4336329 (PLoS ONE, 2015):
The campaign covered roughly 310,000 compounds. About 14,000 (4.5%) showed an effect of 50% or more. The effect is printed as a negative number. The list shows a part of the results.

molecular target: human ether-à-go-go-related gene (hERG) potassium channel (human, UniProt Q12809); test: primary screen, population patch clamp on CHO cells stably expressing hERG
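Note: peak tail current of the secondary pulse compared with the same well before compound.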

human ether-à-go-go-related gene (hERG) potassium channel, sequence (Q12809 whole entry, looked up): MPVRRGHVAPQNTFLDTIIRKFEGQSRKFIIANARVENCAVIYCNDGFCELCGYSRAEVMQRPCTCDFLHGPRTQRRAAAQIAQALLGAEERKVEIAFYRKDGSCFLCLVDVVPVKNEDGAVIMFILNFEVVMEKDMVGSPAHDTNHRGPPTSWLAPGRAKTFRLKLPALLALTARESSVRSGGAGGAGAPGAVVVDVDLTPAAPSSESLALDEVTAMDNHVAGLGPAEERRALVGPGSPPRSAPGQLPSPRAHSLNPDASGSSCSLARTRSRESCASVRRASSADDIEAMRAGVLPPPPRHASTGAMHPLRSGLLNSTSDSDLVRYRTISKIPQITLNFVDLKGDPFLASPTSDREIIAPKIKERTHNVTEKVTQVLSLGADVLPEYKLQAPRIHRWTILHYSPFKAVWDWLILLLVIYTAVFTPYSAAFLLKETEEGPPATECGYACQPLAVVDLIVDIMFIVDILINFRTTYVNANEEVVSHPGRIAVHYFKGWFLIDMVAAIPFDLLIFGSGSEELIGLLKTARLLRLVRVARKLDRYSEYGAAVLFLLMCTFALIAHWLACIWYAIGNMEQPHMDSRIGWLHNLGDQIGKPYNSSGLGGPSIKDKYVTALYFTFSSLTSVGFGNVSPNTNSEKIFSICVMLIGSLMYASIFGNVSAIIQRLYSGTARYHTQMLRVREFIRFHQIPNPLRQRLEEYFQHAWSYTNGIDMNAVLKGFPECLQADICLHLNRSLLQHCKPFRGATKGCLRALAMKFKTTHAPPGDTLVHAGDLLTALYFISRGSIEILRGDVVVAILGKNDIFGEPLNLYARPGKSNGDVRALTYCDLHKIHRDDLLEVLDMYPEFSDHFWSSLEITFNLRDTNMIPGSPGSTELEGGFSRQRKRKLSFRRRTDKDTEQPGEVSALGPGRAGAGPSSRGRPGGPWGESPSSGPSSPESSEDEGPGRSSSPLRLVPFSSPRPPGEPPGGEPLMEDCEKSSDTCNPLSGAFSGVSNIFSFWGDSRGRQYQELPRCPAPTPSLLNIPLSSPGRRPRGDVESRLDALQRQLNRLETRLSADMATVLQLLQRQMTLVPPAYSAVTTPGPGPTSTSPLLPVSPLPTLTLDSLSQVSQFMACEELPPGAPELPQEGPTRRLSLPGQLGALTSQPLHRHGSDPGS

SMILES	hERG current change (%, negative = inhibition) at 10uM
COc1cc(SC)ccc1C(=O)Nc1ccccc1	-3.75%
COc1ccc(-c2cc(CNC(C)=O)on2)cc1	10.8%
COc1ccc(S(=O)(=O)Nc2cc3c4c(c2)CCN4C(=O)CC3)cc1C	-26.9%
O=C(CCC1CCCCC1)NNC(=O)c1cnccn1	-4.92%
COc1ccc(C(=O)NC(C)c2nccs2)cc1OC1CCN(C(C)C)CC1 (stereo not drawn)	8.16%
CC(C)(C)NC(=O)Cc1ccc(Cl)c(Cl)c1	23.1%
Nc1nnc(CC(=O)N/N=C/c2cccc([N+](=O)[O-])c2)s1	16.6%
COCCOC(=O)c1c(NC(=O)CNC2CCCc3ccccc32)sc(C(N)=O)c1C (stereo not drawn)	-30.4%
Cc1ccccc1OCCOc1cccc(/C=N/NC(=O)Cc2nnc(N)s2)c1	14.2%
O=C(c1cccc(Cl)c1)N1CCN(C(=O)c2ccco2)CC1	-8.43%
C=CCNc1nc(NCCN2CCOCC2)nc(OC)n1	-4.89%
CSC1=C(C#N)C(CC(C)C)C(C(C)=O)=C(C)N1 (stereo not drawn)	-1.73%
Cc1cc(C)c(NC(N)=S)c(C)c1	12.8%
CCOC(=O)c1[nH]c2ccccc2c1NC(=O)c1ccc(S(=O)(=O)N2CCOCC2)cc1	-33.7%
COc1ccc(CNC(=O)CCc2c(C)nc3cc(-c4ccccc4OC)nn3c2C)cc1	-37.7%
Cl.c1ccc2c(c1)N1CCN=C1N2CCN1CCCCC1	-15.3%
CCC(=O)Nc1ccc(S(=O)(=O)Nc2nccs2)cc1	19.5%
O=C(Nc1ccc(F)cc1)N1CCc2ccccc2C1	-22.6%
O=c1cc(NCc2ccco2)c2ccccc2o1	7.67%
O=C(N/N=C/c1cccnc1)c1ccc(NC(=O)c2cccc(Cl)c2)cc1	15.3%
CNC(=O)c1cc(S(=O)(=O)Nc2ccc3c(c2)OCCO3)ccc1C	4.54%
COc1ccc(C(C(=O)OCCN(C)C)c2ccccc2)cc1.Cl (stereo not drawn)	-36.6%
COc1ccc(-c2cc(CNC(=O)CN3CCN(C)CC3)on2)cc1	1.99%

SMILES	hERG current change (%, negative = inhibition) at 10uM
COc1cc(C)c(NC(=S)Nc2ccc(Cl)c(Cl)c2)cc1OC	5.06%
CC(=O)c1cc(NC(=O)c2ccccc2)c(=O)oc1C	5.99%
O=C(Nc1ccc(N2C(=O)C3C4C=CC(C4)C3C2=O)cc1)Nc1nnc(C(F)(F)F)s1 (stereo not drawn)	4.18%
O=[N+]([O-])c1ccc(OCC(O)CN2CCN(c3ccccc3F)CC2)cc1 (stereo not drawn)	-75.3%
O=C(Nc1ccc(C(=O)O)cc1)/C(=C\c1ccc2c(c1)OCO2)NC(=O)c1ccco1	45.1%
COc1cc(NC(=O)c2ccccc2)c(OC)cc1NC(C)=O	-6.29%
COc1ccc(C(=O)Nc2ccc(-c3ccc(C)o3)cc2)cc1S(=O)(=O)N1CCOCC1	14.6%
CCC(CCC(=O)Nc1ccc(S(N)(=O)=O)cc1)C(=O)O (stereo not drawn)	0.228%
CC1(C)CC(=O)C2=C(C1)N=C1c3ccccc3C(=O)C1C2c1ccc(Cl)cc1 (stereo not drawn)	-18.2%
Cc1ccccc1-c1nc(Cc2ccc(Cl)cc2)no1	0.775%
Cc1cc(NC(=O)CS(=O)(=O)c2c[nH]c3ccccc23)no1	4.1%
CN(C)C(C(=O)NC1CCCCC1)c1ccc(Cl)cc1 (stereo not drawn)	4.27%
COCC(C)NCc1ccccc1C.O=C(O)C(=O)O (stereo not drawn)	-1.67%
CN(CC(=O)Nc1cccc(F)c1)C(=O)c1cccnc1Sc1ccccc1	-26.8%
Cn1c2c(c(=O)n(C)c1=O)C(C(F)(F)F)(C(F)(F)F)N=C(C1CCCCC1)N2	-16.8%
CCCCSCCCNC(=S)Nc1ccccc1C	5.08%
COc1cc(Cc2nccc3cc(OC)c(OC)cc23)c(NC(C)=O)cc1OC	22.5%
COc1ccc(CC(=S)N2CCOCC2)cc1OC	23.9%
N#Cc1ccccc1OCC(=O)NCCNC(=O)COc1ccccc1C#N	-10.1%
Cn1c(=O)cc(OCCCC(=O)NC2CCCC2)c2ccccc21	-13.8%
Cc1cc(NC(=O)C(C)C)ncc1NC(=O)c1ccccn1	4.15%
CCN(CC)C(=O)c1nn(Cc2ccccc2)c(=O)c2ccccc12	-23.4%
Fc1ccc2[nH]c3c(N4CCN(C5CCCCC5)CC4)ncnc3c2c1	-46.7%

SMILES	hERG current change (%, negative = inhibition) at 10uM
O=S(=O)(Cc1ccc(Cl)cc1)NCC1CCCO1 (stereo not drawn)	-6.17%
NS(=O)(=O)c1ccc(NS(=O)(=O)c2cccs2)cc1	21.5%
CCNc1ccc(C(=O)OCC(=O)N2CCCC2)cc1[N+](=O)[O-]	-18.2%
CCOc1ccc(CNC(=O)c2ccc(Sc3ccc(Cl)cc3)c(NC(C)=O)c2)cc1	-8.57%
CCN1CCN(C(=O)c2ccc(C(F)(F)F)cc2)CC1	-15%
CC(=O)N1CCN(S(=O)(=O)c2cccc(C(=O)Nc3ccc(F)c(F)c3)c2)CC1	-46.5%
CC(=O)Nc1ccc(C(=O)OCc2ccc(F)cc2)cc1	-10.9%
O=C(NC(=S)Nc1ccccc1C(F)(F)F)c1ccccc1F	4.2%
O=C(O)C(=O)O.c1ccc(CCNC2CCCCCC2)cc1	-4.67%
COc1ccc2cc(S(=O)(=O)n3cnc(C)c3)ccc2c1	25.8%
COc1ccc(C)cc1S(=O)(=O)N1CCCC(C(=O)N2CCOCC2)C1 (stereo not drawn)	16.3%
CCOC(=O)C1CCN(c2c(NCCCN(C)C3CCCCC3)c(=O)c2=O)CC1	-6.06%
O=S(=O)(c1ccccc1)c1nc(-c2ccco2)oc1NCc1ccccc1	-4.93%
CC(=O)N(CCCc1ccc(C(C)(C)C)cc1)CCCN(C)C	-47.4%
Nn1c(SCC(=O)NCCc2ccc(F)cc2)nnc1C1CCCCC1	-3.5%
O=C(NNC(=O)c1cc(-c2ccncc2)nc2ccccc12)c1cccc(Cl)c1	-9.55%
Clc1ccc(N=NN2CCOCC2)cc1	3.02%
CCCCn1c(N)c(N(CC(C)C)C(=O)C2=NN(c3ccccc3)C(=O)CC2)c(=O)[nH]c1=O	10.4%
COc1cc2cc(CN(CCc3ccccc3C)C(=S)NCCCN(C)C)c(=O)[nH]c2cc1OC	-20.2%
C(=N\n1cnnc1)/c1cccc2ccccc12	7.94%
O=C(CN1CCN(c2ccc(O)cc2)CC1)NCC(=O)Nc1ccc(F)c(F)c1F	-40.3%
O=C(CN1C(=O)COc2ccccc21)N1CCN(c2ccccc2F)CC1	-7.46%
O=S(=O)(Nc1nc2c(s1)CCCC2)c1ccc(Br)cc1	7.76%

SMILES	hERG current change (%, negative = inhibition) at 10uM
COCCn1cnnc1SCC(=O)Nc1cc(OC)c([N+](=O)[O-])cc1C	-2.6%
O=C(Nc1ccc(C(=O)N2CCOCC2)cc1)c1ccc([N+](=O)[O-])cc1	-18.7%
Cc1nn(CC(=O)NCCCN2CC(C)CC(C)C2)c(=O)c2cccn12 (stereo not drawn)	12.9%
Cc1ccc(-c2cc(C(=O)N/N=C/c3cccnc3)c3ccccc3n2)cc1C	5.8%
CC(=O)NC(N1CCCCC1)C(F)(F)C(F)(F)C(F)(F)C(F)F (stereo not drawn)	-2.84%
O=C1CC2(CCN(C(=O)c3ccc([N+](=O)[O-])cc3)CC2)Oc2ccccc21	-87.9%
CCN(CC(=O)Nc1c(F)cccc1F)C(=O)C1CC(=O)N(CCc2ccccc2)C1 (stereo not drawn)	-10.5%
COc1cccc(CNC(=O)CCS(=O)(=O)c2ccccc2Cl)c1	11.2%
Cc1cc2nc(CCN3CCOCC3)n(S(=O)(=O)c3ccc(C(C)(C)C)cc3)c2cc1C	-3.7%
Cc1ccc2oc(=O)n(CCCOc3ccccc3C)c2c1	6.39%
COc1ccc(C(=O)COC(=O)c2ccn(C)n2)cc1	-14.5%
COc1cc(-c2nc3ccccc3nc2-c2ccc(O)c(OC)c2)ccc1O	-10.8%
COc1ccccc1N1CCN(S(=O)(=O)c2ccc3nc(-c4ccccc4)[nH]c3c2)CC1	-17.6%
Brc1ccccc1-c1nnc2sc(Cc3ccccc3)nn12	-14.2%
COc1ccc(NC(=O)c2nnn(CC(=O)Nc3ccccc3OC)c2N)c(OC)c1	0.272%
CCNC(=O)Cc1ccc(S(=O)(=O)N2CCOCC2)s1	1.81%
COc1ccccc1NS(=O)(=O)c1cc(NC(=S)NCC2CCCO2)ccc1C (stereo not drawn)	14.4%
CC(C)Oc1ccc(C(=O)NC2(C(F)(F)F)NC(=O)N(CCCc3ccccc3)C2=O)cc1 (stereo not drawn)	-14.6%
CN(CC(=O)NC(c1ccccc1)c1ccccc1)Cc1nc2ccccc2c(=O)[nH]1	-37%
O=C(Nc1ccccc1OC(F)F)c1ccc(S(=O)(=O)N2CCOCC2)cc1	13.3%
Cc1ccccc1OCC(=O)OCC(=O)c1c[nH]c2ccccc12	12.3%
